Measurements from PubChem BioAssay AID1768 (National Center for Advancing Translational Sciences (NCATS), 2009).
The whole screen tested about 270,000 compounds, of which about 620 (0.23%) were called active. Inconclusive results, whose numbers are uncertain, are shown with a selection of clear calls. Calls follow the shape of the dose curve; as a rule, active = well fitted inhibition curve with a large enough effect in the polarisation, with a control signal flat (not every such curve was filed as active); inconclusive = small, poorly fitted or top-dose-only effect, or effect the other way, or a change in a side signal; inactive = no such curve, though single readings can be large or run the other way; the % refers to the polarisation. Where the call is inconclusive, the potency comes from a doubtful curve fit. “Side channel” marks fits to a control or component signal instead of the main read-out.

target: Menin (Homo sapiens) (UniProt O00255); assay: qHTS Assay for Inhibitors Targeting the Menin-MLL Interaction in MLL Related Leukemias: Competition With Texas Red Labeled MLL-derived Mutant Peptide; conditions: fluorescence polarization; series mostly up to 61.6 µM
Potency is read from the fitted curve at half-maximal effect; tags tell the direction and shape of the fitted curve or compound fluorescence and quenching.

Chain of UniProt O00255 (O00255 whole entry, looked up): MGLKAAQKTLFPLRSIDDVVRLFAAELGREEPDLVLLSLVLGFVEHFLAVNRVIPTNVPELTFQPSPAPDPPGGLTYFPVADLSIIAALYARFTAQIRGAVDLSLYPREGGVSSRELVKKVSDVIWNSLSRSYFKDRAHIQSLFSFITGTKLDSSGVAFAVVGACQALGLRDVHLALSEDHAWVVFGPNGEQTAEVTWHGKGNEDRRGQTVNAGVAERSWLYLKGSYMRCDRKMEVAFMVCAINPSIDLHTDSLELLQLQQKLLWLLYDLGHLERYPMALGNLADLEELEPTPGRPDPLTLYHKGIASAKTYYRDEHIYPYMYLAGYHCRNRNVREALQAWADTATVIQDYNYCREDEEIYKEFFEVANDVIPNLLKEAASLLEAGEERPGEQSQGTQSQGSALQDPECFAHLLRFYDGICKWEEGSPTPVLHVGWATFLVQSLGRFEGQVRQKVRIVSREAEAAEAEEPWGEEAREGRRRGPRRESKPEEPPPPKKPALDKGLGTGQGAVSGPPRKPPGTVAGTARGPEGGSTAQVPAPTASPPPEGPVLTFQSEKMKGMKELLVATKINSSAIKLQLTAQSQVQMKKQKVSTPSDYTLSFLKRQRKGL

Potency, active:
CC1(C)CC(Nc2ccc(Nc3ccccc3)cc2)CC(C)(C)N1 20 µM

Potency, inactive:
COCCNC(=O)CCC1CCN(C/C=C/c2ccccc2OC)CC1, CCOC(=O)c1ccc2[nH]c3c(c2c1)CCCCC3=O, OCCOC[C@H]1O[C@H](OCCO)[C@H](OCCO)[C@@H](OCCO)[C@@H]1OCCO (tested in a mixture with another compound)

Potency, inconclusive:
O=C(CSc1ccc(-c2cccnc2)nn1)c1ccc([N+](=O)[O-])cc1 14.1 µM [quencher, side channel, partial curve], CCOC(=O)CSc1nnc(NC(=O)c2cccc(S(=O)(=O)N3CCCCCC3)c2)s1 31.6 µM [inhibitor, single point], CCc1cccc(C)c1NC(=O)CSc1nc2ccc(N3C(=O)c4ccccc4C3=O)cc2s1 20 µM [fluorescent, side channel, partial curve], O=C(O)c1cccc(NC(=O)c2cn(-c3ccccc3)nc2-c2ccc(F)cc2)c1 25.1 µM [quencher, side channel, partial curve], COc1ccc(/C=N\NC(=O)c2ccccc2)cc1COc1ccc(F)cc1 15.8 µM [quencher, side channel, partial curve], O=C1/C(=C/c2cccc([N+](=O)[O-])c2)Oc2cc(O)ccc21 22.4 µM [quencher, partial curve], CCCOc1ccc2c3c(c(=O)oc2c1OCCC)CCCC3 5.62 µM [fluorescent, side channel, full curve], COc1cc2c(cc1NCc1ccccn1)oc1ccccc12 25.1 µM [quencher, side channel, single point], CCOC(=O)C1(CCCc2ccccc2)CCN(C(=O)CN2C(=O)CSC2=O)CC1 20 µM [fluorescent, side channel, single point], Cc1nc(C)c(-c2csc(Nc3ccc(O)c(C(=O)O)c3)n2)s1 17.8 µM [quencher, side channel, partial curve], COc1ccc(N=NC2C(=O)N(c3ccccc3)N=C2C)cc1 (configuration not stated) 39.8 µM [inhibitor, single point], Cc1ccc(-c2c(C#N)c(N)n(-c3ccc(C)cc3)c(=O)c2C#N)cc1 39.8 µM [inhibitor, single point], COc1cccc(CNc2ccc([N+](=O)[O-])cc2Cl)c1O 25.1 µM [quencher, side channel, partial curve], COc1ccc(CC(=O)Nc2ccc(N3CCN(c4ccc(OC)cc4)CC3)c(C#N)c2)cc1 1.78 µM [quencher, side channel, full curve], Cc1c(N=Cc2ccc(O)c(Br)c2)cccc1[N+](=O)[O-] 17.8 µM [quencher, side channel, single point], O=C(Nc1nnc(CSCc2ccc(Cl)cc2)s1)c1cccc([N+](=O)[O-])c1 20 µM [quencher, side channel, partial curve], CC(C)Oc1ccc(CN=C(N)N=C(N)N)cc1Cl 39.8 µM [inhibitor, single point], CCCCSc1nc(N)c(C#N)c(-c2cccs2)c1C#N 14.1 µM [quencher, side channel, partial curve], CCOC(=O)c1sc(=S)n(Cc2ccccc2)c1N 15.8 µM [quencher, side channel, partial curve], O=C(Nc1ccc2c(c1)OCO2)c1ccc(Br)s1 28.2 µM [quencher, side channel, single point], COc1ccc(Oc2nc3c(c(=O)n(C)c(=O)n3C)n2C)cc1 35.5 µM [fluorescent, side channel, single point], COc1ccccc1CNc1ncnc2sccc12 35.5 µM [inhibitor, partial curve, poor fit], O=C1N=c2ccc([N+](=O)[O-])cc2=C1c1sc(=O)[nH]c1O 35.5 µM [quencher, side channel, single point], Cc1ccc(C(=O)CSc2nnc(N)s2)c(C)c1 22.4 µM [fluorescent, side channel, single point], CN(Cc1nc2ccccc2c(=O)[nH]1)c1ccccc1 8.91 µM [inhibitor, single point], Fc1ccc(CNCc2ccco2)cc1 22.4 µM [inhibitor, partial curve], COc1cccc(NC(=O)C(Sc2nnc(Nc3ccccc3C)s2)c2ccccc2)c1 (configuration not stated) 39.8 µM [inhibitor, single point], CN(Cc1c(C(=O)N/N=C/c2cccc(F)c2)nnn1-c1nonc1N)c1ccccc1 11.2 µM [quencher, partial curve], Cc1oc2c(cc(NS(=O)(=O)c3ccc(C(C)C)cc3)c3ccccc32)c1C(=O)O 25.1 µM [quencher, side channel, single point], O=S(=O)(O)c1ccc2c(N=Nc3ccc(S(=O)(=O)O)c4ccccc34)c(O)c(S(=O)(=O)O)cc2c1 10 µM [quencher, side channel, full curve], O=C(Nc1ccccc1)Nc1ccc2snnc2c1 12.6 µM [quencher, side channel, partial curve], O=C(Cn1cnc2c(nnn2-c2cccc(Cl)c2)c1=O)N1CCOCC1 39.8 µM [inhibitor, single point], CCN(CC)C(=O)c1[nH]cnc1C(=O)N[C@@H](Cc1ccccc1)C(=O)OCc1ccccc1 1.78 µM [fluorescent, side channel, full curve]
